Assay results reported in PubChem BioAssay AID624417 (National Center for Advancing Translational Sciences (NCATS), 2012).
Several values for one entry are separate records, joined by “and”; a condition that tells them apart may be missing. Identical values can stand only once. Hit rate of the full screen: of about 410,000 compounds, about 6,400 (1.6%) were called active. This list was built around the results that the source calls inconclusive (neither active nor inactive); the mix of calls is not that of the screen. Calls come from the whole dose curve; as a rule, active = well fitted inhibition curve with a large enough effect; inconclusive = small, poorly fitted or top-dose-only effect; inactive = no such curve, though single readings can be large or run the other way. A potency beside an inconclusive call is a rough fit, not a confirmed value.

These molecules were tested against Glucagon-like peptide 1 receptor (Homo sapiens) (UniProt P43220) (assay: qHTS of GLP-1 Receptor Inverse Agonists (Inhibition Mode)). Settings: HEK293 GLP-1R CRE-luciferase, luminescence, 24 h, GLP-1R form is constitutively active; activity change, negative = inhibition: at 38.3 µM (top of the series) unless noted.
Chain of UniProt P43220 (P43220 whole entry, looked up): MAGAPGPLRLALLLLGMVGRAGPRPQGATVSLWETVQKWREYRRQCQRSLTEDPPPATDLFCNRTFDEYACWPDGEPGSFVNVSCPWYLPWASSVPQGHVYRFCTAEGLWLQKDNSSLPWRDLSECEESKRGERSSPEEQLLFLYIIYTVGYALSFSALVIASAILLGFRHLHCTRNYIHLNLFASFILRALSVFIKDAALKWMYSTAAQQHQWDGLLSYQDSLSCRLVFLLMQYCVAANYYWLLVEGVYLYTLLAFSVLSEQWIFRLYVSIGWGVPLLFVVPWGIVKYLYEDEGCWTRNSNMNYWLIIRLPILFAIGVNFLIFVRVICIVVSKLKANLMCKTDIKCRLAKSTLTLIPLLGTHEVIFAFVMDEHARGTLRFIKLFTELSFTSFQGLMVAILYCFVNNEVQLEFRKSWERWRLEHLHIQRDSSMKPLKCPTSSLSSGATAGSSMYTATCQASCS
Method in brief: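 HEK293 cells stably co-expressing a cAMP-responsive luciferase reporter and constitutively active GLP-1R were seeded, incubated 12 h, then exposed to compounds for 24 h at 37 C. Luminescence was read 12 min after detection reagent; inverse agonists lower signal.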
% is set by controls: 0 for no effect and ±100 for the full control effect; potency is the fitted concentration of half-maximal effect; tags give direction and shape of the fitted curve.
Note: nearly all actives have a fitted effect of over 55% in size.

Structure (SMILES) | Potency | activity change, negative = inhibition
COc1ccc(C2=NOC(C(=O)NCc3ccc(F)cc3)C2)cc1 (stereo unspecified) | inconclusive: 1.12 µM [inhibitor, full curve] | 
CC1CC1C(=O)OCC(=O)Nc1cccc(Br)c1 (stereo unspecified) | inconclusive: 28.2 µM [inhibitor, single point] | 
Cc1ccc2nc(-c3cc(NC(=O)/C=C/c4ccccc4)ccc3Cl)oc2c1 |  | inactive: -23.4%
O=C(COc1ccccc1)NCC(=O)N/N=C/c1ccc(Cl)cc1 | inconclusive: 11.2 µM [inhibitor, single point] | 
COc1ccc(Cl)cc1NC(=O)CN1CCN(Cc2ccccc2)CC1 | inconclusive: 22.4 µM [inhibitor, partial curve, poor fit] | 
CC(=O)Nc1ccc(-c2ccnc3c2CC(C(=O)Nc2cccc(C(F)(F)F)c2)O3)cc1 (stereo unspecified) | inconclusive: 7.08 µM [inhibitor, partial curve, poor fit] | 
COc1ccc(N(C(=O)C(C)C)S(=O)(=O)c2cccs2)cc1 | inconclusive: 28.2 µM [inhibitor, single point] | 
COc1ccccc1C1SCCN1S(=O)(=O)c1cccc(C(F)(F)F)c1 (stereo unspecified) | inconclusive: 10 µM [inhibitor, partial curve, poor fit] | 
C=CCSc1nnc(-c2nnc(SCC=C)n2-c2ccccc2)n1-c1ccccc1 | inconclusive: 7.94 µM [inhibitor, partial curve, poor fit] | 
C[C@H]1CN([C@@H](C)CO)C(=O)c2cc(Br)cnc2O[C@H]1CN(C)Cc1ccc(Oc2ccccc2)cc1 | inconclusive: 11.2 µM [inhibitor, single point] | 
Cc1ccc(CN2CCSc3ccc(C(=O)NCc4cccnc4)cc32)cc1 | inconclusive: 28.2 µM [inhibitor, single point] | 
COc1ccccc1CN(C)CC(=O)Nc1ccccc1-c1ccccc1 | inconclusive: 11.2 µM [inhibitor, partial curve, poor fit] | 
Cc1ccc(CN(C)C(=O)COc2ccc(S(=O)(=O)N3CCCC3)cc2[N+](=O)[O-])c(C)c1 | inconclusive: 12.6 µM [inhibitor, partial curve, poor fit] | 
CCOc1ccccc1OCCOCCN1CCN(Cc2ccccc2)CC1 | inconclusive: 7.08 µM [inhibitor, partial curve, poor fit] | 
COc1ccc(C(=O)Nc2cc(C)nn2-c2nc3ccccc3[nH]2)c(OC)c1 | inconclusive: 28.2 µM [inhibitor, single point] | 
O=C(NCCc1ccc(F)cc1)Nc1ccccc1Cl | inconclusive: 25.1 µM [inhibitor, single point] | 
CCCCNC(=O)c1nn2c(C(F)(F)F)cc(-c3ccc(OC)cc3)nc2c1Br | inconclusive: 3.98 µM [inhibitor, full curve, poor fit] | 
CCC(C(=O)NCc1ccc(F)cc1)n1nc(C)n2c(cc3occc32)c1=O (stereo unspecified) | inconclusive: 11.2 µM [inhibitor, single point] | 
CCOc1ccc(NC(=O)c2nn(C)c3c2CS(=O)(=O)c2ccccc2-3)cc1 |  | inactive: 11.2%
Cc1ccccc1CN1CCNC(=O)C1CC(=O)NCCC1=CCCCC1 (stereo unspecified) | inconclusive: 14.1 µM [inhibitor, single point] | 
COc1ccc2nc(NC(=O)CCc3cc(OC)c(OC)c(OC)c3)sc2c1 | inconclusive: 11.2 µM [inhibitor, partial curve, poor fit] | 

Structure (SMILES) | Potency | activity change, negative = inhibition
O=C(CCN1C(=O)/C(=C/c2cccs2)SC1=S)Nc1cccc(O)c1 | inconclusive: 10 µM [inhibitor, partial curve, poor fit] | 
CCc1c(C)c2ccc(OCC(=O)N(C)C)c(C)c2oc1=O |  | inactive: 9.57%
COc1cccc(C(=O)NC(=S)Nc2ccccc2N2CCOCC2)c1 | inconclusive: 15.8 µM [inhibitor, partial curve, poor fit] | 
COCCNCC1C(Oc2ccc(Cl)cc2)C(=O)N1c1ccccc1C (stereo unspecified) | inconclusive: 10 µM [inhibitor, single point] | 
CN(Cc1ccccc1Cl)C(=O)c1cc2ccccc2o1 | inconclusive: 31.6 µM [inhibitor, partial curve, poor fit] | 
COc1ccc(OCCCC(=O)NC(C)c2ccccc2)cc1 (stereo unspecified) | inconclusive: 11.2 µM [inhibitor, partial curve, poor fit] | 
CN(C)c1cccc2c1c(NC(=O)c1ccc(Cl)cc1)nn2C | inconclusive: 3.55 µM [inhibitor, partial curve, poor fit] | 
O=c1c2ccccc2ncn1CCCSc1ccc(Cl)cc1 | inconclusive: 15.8 µM [inhibitor, single point] | 
COc1ccc(CCCN2CCC(CN3C(=S)NC[C@@H]3Cc3ccccc3)CC2)cc1OC |  | inactive: -0.302%
Cc1cc2occ(CC(=O)N(C)CC(=O)Nc3ccccc3Cl)c2cc1C | inconclusive: 12.6 µM [inhibitor, partial curve, poor fit] | 
COc1ccc(CCNC(=O)c2ccc(S(=O)(=O)N3CCCCC3)cc2)cc1 | inconclusive: 28.2 µM [inhibitor, single point] | 
Cc1ccc(S(=O)(=O)N2CCN(C(=O)CSC(=S)N3CCCC3)CC2)c(C)c1 | inconclusive: 28.2 µM [inhibitor, single point] | 
COCCNc1nc(-c2ccccc2F)c2sc(-c3ccccc3)cc2n1 | inconclusive: 22.4 µM [inhibitor, single point] | 
Cc1ccc(CN2CC(N3CCCCC3)CS2(=O)=O)cc1 (stereo unspecified) |  | inactive: 26.9%
Cn1c(NCCO)nc2c(c1=O)C1(CCCCC1)Cc1ccccc1-2 | inconclusive: 11.2 µM [inhibitor, partial curve, poor fit] | 
COc1ccc(N2CCN(CCNC(=O)Nc3ccc([N+](=O)[O-])cc3OC)CC2)cc1 | inconclusive: 12.6 µM [inhibitor, partial curve, poor fit] | 
COc1cc(/C=N/Nc2cccc(C)c2)ccc1OC(=O)c1ccco1 | inconclusive: 2.51 µM [inhibitor, full curve] | 
Cc1ccc(C)c(OCCNc2ncccc2[N+](=O)[O-])c1 | inconclusive: 28.2 µM [inhibitor, single point] | 
O=C(Nc1ccc(Cl)cc1)N1CCC(c2nc(-c3ccc(F)cc3)no2)CC1 | inconclusive: 7.94 µM [inhibitor, partial curve] | 
CCCNC(=O)c1cc2c(c(-c3cccc(-c4ccc(F)cc4)c3)n1)[C@H](CCO)N(S(=O)C(C)(C)C)C2 (stereo partly specified) | inconclusive: 10 µM [inhibitor, partial curve, poor fit] | 
COC(=O)[C@@]1(Sc2ccc(C)cc2)CC(=O)N(C(=O)CCc2ccccc2)[C@@H]1c1ccccc1 | inconclusive: 11.2 µM [inhibitor, single point] | 

Structure (SMILES) | Potency | activity change, negative = inhibition
Cc1ccc(C(=O)NCCCc2ccccc2)c(Cl)c1 | inconclusive: 28.2 µM [inhibitor, single point] | 
COc1ccc(CN2CCCN(S(=O)(=O)c3ccc(Br)cc3)CC2)cc1 | inconclusive: 15.8 µM [inhibitor, partial curve, poor fit] | 
CCn1cc(CCC(=O)NCc2ccccc2OC)c2ccccc21 | inconclusive: 10 µM [inhibitor, single point] and inconclusive: 31.6 µM [inhibitor, single point] | 
Cc1ccccc1Cn1nnc(C(=O)Nc2ccc3c(c2)OCCO3)c1N | inconclusive: 28.2 µM [inhibitor, single point] | 
Cc1ccc(S(=O)(=O)CC(=O)Nc2sc3c(c2C#N)CCCC3)cc1 |  | inactive: 7.68%
Cc1ccc(CSCC(=O)N2CCN(c3ccccc3F)CC2)cc1 | inconclusive: 28.2 µM [inhibitor, single point] | 
Cc1cc(C2CCCCC2)n(O)c(=O)c1 | inconclusive: 1.41 µM [inhibitor, full curve, poor fit] | 
Cc1ccc(C)c(C(=O)COC(=O)c2n[nH]c3ccccc23)c1 | active: 10 µM | 
CCOc1ccc(N(C(C)C(=O)N/N=C(\C)c2cccc(NC(=O)c3ccccc3)c2)S(C)(=O)=O)cc1 (stereo unspecified) | inconclusive: 15.8 µM [inhibitor, single point] | 
CCOC(=O)c1ccc(N2C(=O)c3n[nH]c(-c4ccco4)c3C2c2ccc(O)cc2)cc1 (stereo unspecified) | inconclusive: 28.2 µM [inhibitor, single point] | 
Cc1ccc(C)c(OC(=O)c2cccnc2Cl)c1C | inconclusive: 31.6 µM [inhibitor, single point] | 
O=C(Nc1nc2n(n1)C(c1ccccc1)CC(c1ccc(Cl)cc1)N2)c1ccco1 (stereo unspecified) | inconclusive: 28.2 µM [inhibitor, single point] | 
Cc1csc(/C(=N\O)c2csc(C)n2)n1 |  | inactive: 1.18%
COc1ccc(/C=N/NC(=O)CSc2nnc(CCCc3ccc(OC)c(C)c3)o2)cc1 | inconclusive: 10 µM [inhibitor, single point] | 
O=C(Cn1c(=S)[nH]c2ccccc21)c1ccccc1 |  | inactive: -21.1%
CC12CC3CC(C)(C1)CC(C(=O)N1CCN(C(=O)C4CCCO4)CC1)(C3)C2 (stereo unspecified) |  | inactive: -17.9%
COc1ccc(-c2cc(C(=O)NNC(=S)NC(=O)c3c(-c4ccccc4)noc3C)[nH]n2)cc1 | inconclusive: 12.6 µM [inhibitor, single point] | 
O=C(c1ccc(Cl)c(S(=O)(=O)N2CCc3ccccc3C2)c1)N1CCN(c2ccccc2)CC1 | inconclusive: 2.82 µM [inhibitor, partial curve, poor fit] | 
CCCCCOc1c(Cl)cc(C(=O)N(Cc2ccc(C)o2)C2CCS(=O)(=O)C2)cc1Cl (stereo unspecified) | inconclusive: 8.91 µM [inhibitor, partial curve, poor fit] | 
